From PubChem BioAssay AID504332 (National Center for Advancing Translational Sciences (NCATS), 2011)
Several values for one entry are separate records, joined by “and”; a condition that tells them apart may be missing. Identical values can stand only once. The whole screen tested about 350,000 compounds, of which about 31,000 (8.9%) were called active. This list was built around the results that the source calls inconclusive (neither active nor inactive); the mix of calls is not that of the screen. Calls come from the whole dose curve; as a rule, active = well fitted inhibition curve with a large enough effect; inconclusive = small, poorly fitted or top-dose-only effect; inactive = no such curve, though single readings can be large or run the other way. A potency beside an inconclusive call is a rough fit, not a confirmed value.

target: Histone-lysine N-methyltransferase EHMT2 (Homo sapiens) (UniProt Q96KQ7); test: qHTS Assay for Inhibitors of Histone Lysine Methyltransferase G9a; settings: G9a H3K9 monomethylation, AlphaScreen, 2 h; activity, negative = inhibition: at 59 µM (top of the series) unless noted; note: nearly all actives have a fitted effect of over 75% in size
Chain of UniProt Q96KQ7 (Q96KQ7 whole entry, looked up): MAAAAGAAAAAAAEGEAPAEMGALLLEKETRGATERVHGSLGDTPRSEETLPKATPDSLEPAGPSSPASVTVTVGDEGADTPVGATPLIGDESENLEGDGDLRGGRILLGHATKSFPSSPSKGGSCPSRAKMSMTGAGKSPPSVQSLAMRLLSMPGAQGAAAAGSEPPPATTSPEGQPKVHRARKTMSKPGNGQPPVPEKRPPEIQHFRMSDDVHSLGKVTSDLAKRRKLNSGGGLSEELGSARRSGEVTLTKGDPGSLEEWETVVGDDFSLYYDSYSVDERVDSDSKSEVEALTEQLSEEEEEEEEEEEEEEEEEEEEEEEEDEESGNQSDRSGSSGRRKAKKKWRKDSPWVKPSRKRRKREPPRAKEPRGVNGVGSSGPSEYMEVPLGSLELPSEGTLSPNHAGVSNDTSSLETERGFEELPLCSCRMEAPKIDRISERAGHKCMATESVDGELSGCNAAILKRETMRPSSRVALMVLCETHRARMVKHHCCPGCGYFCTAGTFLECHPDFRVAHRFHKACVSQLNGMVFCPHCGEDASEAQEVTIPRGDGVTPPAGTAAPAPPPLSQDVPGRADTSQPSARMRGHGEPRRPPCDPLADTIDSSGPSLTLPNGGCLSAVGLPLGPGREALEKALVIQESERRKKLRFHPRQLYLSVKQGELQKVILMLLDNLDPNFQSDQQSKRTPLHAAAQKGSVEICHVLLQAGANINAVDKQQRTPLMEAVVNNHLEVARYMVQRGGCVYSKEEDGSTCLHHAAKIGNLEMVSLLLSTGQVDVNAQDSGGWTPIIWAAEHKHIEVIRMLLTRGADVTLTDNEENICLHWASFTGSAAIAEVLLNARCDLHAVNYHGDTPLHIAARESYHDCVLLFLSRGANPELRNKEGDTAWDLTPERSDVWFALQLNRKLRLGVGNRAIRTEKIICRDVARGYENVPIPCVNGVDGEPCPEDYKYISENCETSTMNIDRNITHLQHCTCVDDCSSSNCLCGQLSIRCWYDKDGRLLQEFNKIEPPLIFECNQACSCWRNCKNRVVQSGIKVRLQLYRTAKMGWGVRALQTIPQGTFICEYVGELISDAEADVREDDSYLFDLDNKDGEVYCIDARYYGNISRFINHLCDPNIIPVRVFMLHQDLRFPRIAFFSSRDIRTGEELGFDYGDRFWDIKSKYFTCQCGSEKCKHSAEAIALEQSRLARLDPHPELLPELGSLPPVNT
Procedure, shortened: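 Enzyme 20 nM + cpd, 15 min RT; add b-H3K9 pep 500 nM / SAM 20 uM; 2 h RT; anti-H3K9me1 Ab 0.5 ug/mL + SA donor / anti-rabbit acceptor beads 20 ug/mL each, 10 min; AlphaScreen read.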
% is set by controls: 0 for no effect and ±100 for the full control effect; potency is the fitted concentration of half-maximal effect; tags give direction and shape of the fitted curve.

Structure (SMILES) | activity, negative = inhibition | Potency
O=C1NCN(c2ccccc2)C12CCN(CC1COc3ccccc3O1)CC2 (stereo unspecified) | inactive: 38.6% | –
N#CC1(c2ccccc2)CCN(C2CC(=O)N(c3ccc4c(c3)OCO4)C2=O)CC1 (stereo unspecified) | – | active: 22.4 µM
C[C@]12CCC3C(CCC4=C(Cl)C(=O)CC[C@@]43C)C1CCC2O (stereo partly specified) | inactive: 7.29% [at 12.7 µM] | –
O=C(c1cccs1)C1CN2CCC1CC2 (stereo unspecified) | inconclusive: -61.4% [inhibitor] | –
CNCCc1nc(N)n[nH]1 | – | active: 56.2 µM
COc1c2c(cc3c1OCO3)C13C=CC(OC)CC1N(C2)CC3O (stereo unspecified) | inactive: -30.4% [at 2.33 µM] | –
C[C@H](O)[C@H]1CC[C@H]2[C@@H]3CCC4=CC(=O)CC[C@]4(C)[C@H]3CC[C@]12C | – | inconclusive: 56.2 µM [inhibitor, partial curve, poor fit]
CN1C(=O)N(C)C(=O)C2(Sc3ccccc3C2=O)C1=O | – | inconclusive: 7.94 µM [inhibitor, full curve, poor fit]
CN1C(=O)C(Cc2cccs2)C(=O)N(C)C1=O | – | inconclusive: 39.8 µM [inhibitor, single point]
F/C(COc1ccc2c(c1)[nH]c1ccccc12)=C1/CN2CCC1CC2 | – | inconclusive: 7.08 µM [inhibitor, single point]
CCCCn1c(O)c(/C=C2\C=Nc3ccccc32)c(=O)[nH]c1=O | – | active: 70.8 µM
CNS(=O)(=O)c1ccc(N=Cc2c(O)n(-c3ccccc3)c(=O)[nH]c2=O)cc1 | – | inconclusive: 79.4 µM [inhibitor, single point]
CC1(O)C[C@]2(C)N(O)C3CCCC[C@@H]3N2O1 (stereo partly specified) | – | inconclusive: 31.6 µM [inhibitor, partial curve, poor fit]
COC(=O)c1ccc(C(c2c(C)[nH][nH]c2=O)c2c(C)[nH][nH]c2=O)cc1 | – | inconclusive: 3.98 µM [inhibitor, partial curve]
Cc1ccc(S(=O)(=O)N2CCCC2c2cccnc2)cc1 (stereo unspecified) | – | inconclusive: 44.7 µM [inhibitor, partial curve, poor fit]
COc1ccc(/C=C/C(=O)Nc2ccc(C)cc2)cc1 | – | inconclusive: 22.4 µM [inhibitor, partial curve, poor fit]
CC(C)c1ccc(N=Nc2c(O)[nH]c(=O)[nH]c2=O)cc1 | – | inconclusive: 89.1 µM [inhibitor, partial curve, poor fit]
COc1ccccc1-n1c(-c2ccco2)n[nH]c1=S | – | active: 22.4 µM
O=C1NC(=S)NC(=O)C1C1CCCCC1 | inconclusive: -77.4% [inhibitor] | –
COc1ccc(CCNCc2c(OC)ccc3ccccc23)cc1 | – | active: 14.1 µM
Cc1ccc2c(c1)=C/C(=C\c1c(O)[nH]c(=S)[nH]c1=O)C(=O)N=2 | – | active: 3.55 µM
N#CC1(c2ccccc2)CCN(C2CC(=O)N(c3cccc(F)c3)C2=O)CC1 (stereo unspecified) | – | inconclusive: 50.1 µM [inhibitor, partial curve]
CC(O)CNc1ccc([N+](=O)[O-])c2cccnc12 (stereo unspecified) | – | inconclusive: 89.1 µM [inhibitor, single point]
Cc1nn(Cc2ccccc2)c(C)c1C=C1C(=O)NC(=S)NC1=O | – | active: 8.91 µM

Structure (SMILES) | activity, negative = inhibition | Potency
O=c1[nH]c(SCc2n[nH]c(=S)n2-c2ccccc2)nc2ccccc12 | – | inconclusive: 0.398 µM [inhibitor, partial curve, poor fit]
CCCc1[nH]nc2c1C1(C(=O)N(CC(N)=O)c3ccccc31)C(C(=O)OC)=C(N)O2 (stereo unspecified) | inactive: -14.2% [at 102 µM] | –
NCCCC(=O)OC1N=C(c2ccccc2Cl)c2cc(Br)ccc2NC1=O (stereo unspecified) | – | inconclusive: 35.5 µM [inhibitor, partial curve, poor fit]
Cc1ccc(-c2nn(CCC#N)cc2C(=O)O)cc1C | inactive: 4.34% [at 102 µM] | –
CCCN(C/C=C/I)C1CCc2ccc(O)cc2C1 (stereo unspecified) | – | inconclusive: 11.2 µM [inhibitor, single point]
C1=C(c2c[nH]c3ccccc23)CCNC1 | – | inconclusive: 100 µM [inhibitor, single point]
N=C(N)c1ccc(CS(=O)(=O)F)cc1 | inactive: -85.1% | –
NC(=NCCC[C@H](N)C(=O)O)N[N+](=O)[O-] | inactive: 14.2% | –
O=c1[nH]cc(N(CCCl)CCCl)c(=O)[nH]1 | – | inconclusive: 3.16 µM [inhibitor, partial curve, poor fit]
COc1ccc(C(=O)C(Cc2ccccc2)N(C)C)cc1 (stereo unspecified) | – | inconclusive: 35.5 µM [inhibitor, partial curve, poor fit]
Cc1ccc2nsnc2c1-n1c(C)nc2ccccc2c1=O | – | inconclusive: 50.1 µM [inhibitor, partial curve, poor fit]
CN(C)c1cccc2c(C#N)ccc(N(C)C)c12 | – | active: 44.7 µM
O=C(CN1CCCC1)Nc1ccc(Cl)cc1C(=O)c1ccccc1 | – | active: 6.31 µM
NCCCCN=C(N)N | inactive: -24.1% [at 2.33 µM] and inactive: 28.7% [at 12.7 µM] | –
OCCNc1c2c(nc3ccccc13)CCCC2 | inactive: -9.81% [at 102 µM] | –
CN1CCN(c2ccc(/C=C3\C(=O)NC(=S)N(c4cccc(Br)c4)C3=O)o2)CC1 | – | inconclusive: 39.8 µM [inhibitor, single point]
NC1(c2ccccc2Cl)CCCCC1=O (stereo unspecified) | inactive: 3.33% | –
N#CC1=C(N)Oc2n[nH]c(-c3ccccc3)c2C1c1cccc(OC(=O)N2CCOCC2)c1 (stereo unspecified) | – | inconclusive: 89.1 µM [inhibitor, single point]
O=C1NC(=O)c2c1c1c3ccccc3[nH]c1c1[nH]c3ccccc3c21 | – | inconclusive: 25.1 µM [inhibitor, single point]
CCC/C(=N\O)c1c[nH]c2ccccc12 | – | inconclusive: 39.8 µM [inhibitor, single point]
COc1ccccc1NC1(C#N)CCCCC1 | – | inconclusive: 79.4 µM [inhibitor, single point]
O=C(Nc1ccc(OC(=O)N2CCCCC2)cc1)N1CCOCC1 | – | inconclusive: 39.8 µM [inhibitor, partial curve, poor fit]
CC(=O)Cc1c[nH]c2ccccc12 | – | inconclusive: 89.1 µM [inhibitor, partial curve, poor fit]
COc1cc(CNCCc2ccc3c(c2)OCO3)cc(OC)c1OC | – | active: 5.01 µM

Structure (SMILES) | activity, negative = inhibition | Potency
C[N+]1([O-])[C@H]2CC[C@H]1CC(OC(=O)[C@@H](CO)c1ccccc1)C2 (stereo partly specified) | inactive: 10.2% | –
CNC(=O)Oc1ccc2ncccc2c1 | – | active: 44.7 µM
Cc1cc(/C=C2/C(=O)NC(=O)N(Cc3ccco3)C2=O)c(C)n1-c1ccccc1 | – | active: 10 µM
C/C(=N\NC(=O)c1ccccc1O)c1c(O)n(C2CCCCC2)c(=O)[nH]c1=O | inactive: 2.41% [at 102 µM] | –
CCC1(c2ccccc2)CCC(=O)NC1=O (stereo unspecified) | inactive: 8.49% | –
CCOC(=O)c1c(NC(=O)C(c2ccccc2)c2ccccc2)sc2c1C1CCN2CC1 | – | active: 50.1 µM
COC(=O)c1ccc2ccn(CC(=O)NC(C)C)c2c1 | – | inconclusive: 1.78 µM [inhibitor, partial curve, poor fit]
Cn1c(=O)oc2cc(S(=O)(=O)N3CCCC(C(=O)N4CCN(c5cccc(Cl)c5)CC4)C3)ccc21 (stereo unspecified) | – | inconclusive: 31.6 µM [inhibitor, partial curve, poor fit]
FC(F)(F)c1ccc(CN2CCNCC2)cc1 | – | inconclusive: 50.1 µM [inhibitor, partial curve, poor fit]
Oc1ccc2c3c1O[C@H]1c4[nH]c5c(c4C[C@@]4(O)[C@@H](C2)N(CC2CC2)CC[C@]314)C[C@@]1(O)[C@H]2Cc3ccc(O)c4c3[C@@]1(CCN2CC1CC1)[C@H]5O4 | – | active: 14.1 µM
CN(C)C(=O)Oc1ccc(C(=O)c2ccccc2)cc1 | inactive: 16.2% | –
Cc1n[nH]c(C)c1CCCCOc1ccc([N+](=O)[O-])cc1 | – | active: 50.1 µM
CCOc1ccc2nc(N(CCN(CC)CC)C(=O)c3ccc([N+](=O)[O-])cc3)sc2c1 | inactive: 14.2% [at 102 µM] | –
CN1CCN(c2ccc(C(F)(F)F)cc2N)CC1 | – | inconclusive: 50.1 µM [inhibitor, partial curve, poor fit]
BrCC1C[n+]2c(SCc3ccccc3)nc3sc4c(c3c2O1)CCCC4 (stereo unspecified) | – | inconclusive: 56.2 µM [inhibitor, partial curve, poor fit]
O=c1c2ccccc2nc(/C=C/c2ccccc2O)n1-c1ccccc1O | – | inconclusive: 89.1 µM [inhibitor, partial curve, poor fit]
CCC(=NCc1ccc2c(c1)OCO2)c1c(O)n(C2CCCCC2)c(=O)[nH]c1=O | – | inconclusive: 39.8 µM [inhibitor, partial curve, poor fit]
Cc1ccc2c(c1)C1CN(C)CCC1N2C(=O)COc1ccc(S(=O)(=O)N2CCOCC2)cc1 (stereo unspecified) | – | inconclusive: 89.1 µM [inhibitor, partial curve, poor fit]
Oc1ccc(Cl)cc1CN1CCN(Cc2ccccc2)CC1 | – | inconclusive: 3.16 µM [inhibitor, partial curve, poor fit]
COc1cccc(-n2c(-c3ccoc3)nc3ccccc3c2=O)c1 | – | inconclusive: 89.1 µM [inhibitor, single point]
CCOP(=O)(OCC)C(NC(=O)Cc1ccccc1)C(Cl)(Cl)Cl (stereo unspecified) | – | inconclusive: 79.4 µM [inhibitor, partial curve, poor fit]
CCN1CCC(NCC2CCCCC2)CC1 | – | inconclusive: 56.2 µM [inhibitor, single point]
O=C(O)Cn1cc(/C=C2\C(=O)NC(=O)N(c3ccc(Cl)cc3)C2=O)c2ccccc21 | – | inconclusive: 28.2 µM [inhibitor, partial curve, poor fit]
